Assay results taken from the supplement of paper PMC3334620.
In all, about 33,000 sequences were measured (“E-score (-0.5 to 0.5)”: median about -0.013, highest 2% from about 0.3 on). The list shows a part of the results.

What follows are sequences tested against T1, Msn1 (UniProt P22148) (assay: PBM E-score (8-mer binding enrichment) (E-score (-0.5 to 0.5)); higher = stronger / more preferred TF binding; most listed sequences are background and not binding sites). Settings: protein concentration: 200 nM; construct: GST-full length.
T1 sequence: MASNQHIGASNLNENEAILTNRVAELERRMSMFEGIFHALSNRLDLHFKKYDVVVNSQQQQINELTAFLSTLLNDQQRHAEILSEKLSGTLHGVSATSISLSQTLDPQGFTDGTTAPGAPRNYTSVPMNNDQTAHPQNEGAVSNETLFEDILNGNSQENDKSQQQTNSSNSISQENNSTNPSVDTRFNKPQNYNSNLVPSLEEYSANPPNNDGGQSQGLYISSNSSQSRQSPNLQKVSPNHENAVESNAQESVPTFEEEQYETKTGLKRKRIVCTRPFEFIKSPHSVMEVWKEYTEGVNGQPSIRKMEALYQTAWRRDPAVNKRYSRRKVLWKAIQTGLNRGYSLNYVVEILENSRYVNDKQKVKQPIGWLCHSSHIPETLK
How it was run: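 Using PURExpress in vitro transcription/translation, GST-tagged yeast transcription factors were made in full-length or DNA-binding-domain form. These were applied at about 100-200 nM to double-stranded universal all-10-mer Agilent arrays, and bound protein was detected with fluorescent anti-GST. Scans were normalised with masliner before the Universal PBM Analysis Suite assigned E-scores to ungapped eight-base words pooled with their reverse complements.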

Sequence | PBM E-score
GCAAGTGC | -0.203
CTGCGCTC | -0.19
AGTGCCCG | 0.0217
ACGCGTCT | 0.00594
GACGTCAA | -0.00044
GCACGGGC | -0.351
ATCTTTTA | 0.0434
CTGAATGA | 0.052
AAAGCCGT | -0.068
CTAGGAAC | -0.138
CTACAGCC | -0.162
AAAACTGC | -0.0241
ACGGTCGA | -0.0095
CGCATGCG | -0.0158
AACCGTTG | 0.12
CGTGGACA | 0.408
ACAGGGCC | -0.0844
CATGCCCA | -0.09
ACGAAAGG | 0.113
CCCTAATC | -0.298
GCGGCCGC | -0.207
ACACTCAT | 0.0832
ACGAAGTC | 0.0318
AGCGTGTG | -0.162
CAACGACG | -0.0172

Sequence | PBM E-score
ATAAACGA | 0.257
ATCTTGGA | -0.0269
ACTCTAGA | -0.0148
CGAGACAC | 0.183
AGGCCAAC | -0.129
GTTGTTTA | 0.17
CTGAATCA | 0.0584
GCATGGAC | 0.268
CAGACCGG | -0.152
ATTGATGC | -0.0539
CGATCGAG | -0.00159
GCATAACA | -0.13
CCGGCACA | 0.111
ATATAAAA | 0.187
AGAGGCCG | -0.32
ACGGTTTA | -0.14
ACTTATCT | 0.0527
GTGAACGA | -0.0586
GCTTTTAC | 0.0371
CACGAGAA | -0.115
CCATCGGA | -0.0237
CTCGTGAA | -0.0497
GACCTAGC | -0.075
GCGGTTAA | 0.0384
AAAGCCCC | -0.163

Sequence | PBM E-score
CTCTGTGC | -0.113
CAAAAGAA | 0.244
CCATGCTC | -0.189
CTTGTCTC | 0.319
CAAGATTA | -0.0501
CAAAGCAG | 0.0425
CTTTGATA | 0.058
AGGAGGAG | -0.325
CGGTGTTC | 0.0781
ACAGGCGT | -0.244
ACTTATAT | 0.254
ATCTTTAA | 0.182
AGGGGCGC | -0.123
AAACTTTC | 0.0339
AAGGAGCC | -0.272
ACGTGAGG | -0.0988
ATTAATGA | 0.185
ATCAGAGG | -0.139
AAACAATC | 0.206
CGCTTGAA | 0.174
CAATCCCA | -0.149
ATACATGG | 0.0654
GGTACGAA | 0.178
AGGCGAAT | -0.00718
GCTCACAC | -0.162

Sequence | PBM E-score
ATGCTGGG | -0.12
GAGATGCA | -0.1
AAGTCGGC | 0.00893
AATTTACG | 0.192
ACCAGTCG | -0.0766
ATCGTGTC | 0.276
CAGAGAAA | 0.118
CCAGATCG | -0.102
CGCAACAG | -0.0225
CCCACTTA | -0.0848
ATTTTCAA | 0.165
ACATAGAA | 0.0149
GCTCCCAC | -0.135
AGCTGCCA | -0.133
CAAACTAC | 0.0778
CGTTCCGC | -0.0668
CTGGATTC | 0.00621
CAGCCCTG | -0.307
ACTTCCTC | -0.219
CAGCGGAC | 0.142
AAGACAAA | 0.45
CTTTGATC | -0.14
CACTAAAG | 0.0433
TAAAGGTA | 0.0726
ATACCTCA | -0.0322

Sequence | PBM E-score
ATTACAAC | 0.0519
CAGCTACC | -0.198
CAATCCGG | 0.105
ATTGCTCA | 0.157
AGATTGTG | -0.0281
ATTTGCTC | -0.114
CGACGCAG | -0.0485
TCCCGTAA | -0.0411
AACTGCAC | -0.00259
AACAGCTG | 0.0499
GCTGAAGA | -0.12
AGAGAAAG | -0.0528
CCACTTCG | 0.0364
CAACTGTA | 0.00279
ATGTCAGG | 0.158
CCCGAGGA | -0.0263
ATTGTTTC | 0.182
TCTCGACA | 0.0704
CACCTAAC | -0.0621
CTGGTTTA | -0.0342
GCTTTCGA | -0.175
AGTACACA | 0.298
CTTATCTA | 0.0318
ATGCGAAA | 0.126
AGTGGGAC | 0.118

Sequence | PBM E-score
ATAAGTAG | -0.0559
ACACAGGT | 0.0743
CACAAGGG | -0.0472
AGGTGGCC | -0.314
AATGAAGA | 0.143
GGCCCGCA | -0.252
CCTTCCAG | -0.226
AGATGCCA | -0.152
AGCCGCGC | 0.00067
AGAGCGTG | -0.137
CCATGACC | -0.24
GAGTCTTA | -0.0395
GGTCTCCA | -0.154
AATTACGA | 0.163
CCTTGACG | -0.238
GCCACCAA | -0.0334
CACACCAA | 0.185
ATGTCATA | 0.448
CTGCTCCA | -0.0514
TCGTCGAA | 0.00104
AGCTTTTG | 0.215
GTTCTAGA | 0.152
AGCTACCT | -0.156
TCTGGGAA | -0.0386
ACTCGTCG | -0.0003

Sequence | PBM E-score
TATTTTCA | 0.164
ATTGCGAG | -0.00222
AATCGACA | 0.201
CCTAGTTC | 0.00367
CAATGCGG | 0.0138
AAGTATAG | -0.124
CACTAGGG | -0.274
GGACACAC | 0.382
AGTACAAC | -0.0379
ACTCAGGG | -0.114
CGAGCGCG | 0.0795
GAGCAACC | -0.0679
GGCTGTGA | -0.202
CGAACGGC | 0.0318
ATTGAATA | 0.231
ATTAGACG | -0.0227
ATCCACAG | -0.0125
ATTATGAG | 0.0395
AACGAGGC | -0.135
AAAGTTGT | 0.202
AGTCTTCA | -0.0192
AGTAGGGG | -0.202
